Results published in the supplement of paper PMC3334620.
The full ranking holds about 33,000 sequences; the median of “E-score (-0.5 to 0.5)” is about -0.035, and the highest 2% start at about 0.35. Some of the results follow.

The sequences below were run against T1, Pdr3 (UniProt P33200) (assay: PBM E-score (8-mer binding enrichment) (E-score (-0.5 to 0.5)); higher = stronger / more preferred TF binding; most listed sequences are background and not binding sites). Conditions: protein concentration: 200 nM; construct: GST-full length.
T1 sequence: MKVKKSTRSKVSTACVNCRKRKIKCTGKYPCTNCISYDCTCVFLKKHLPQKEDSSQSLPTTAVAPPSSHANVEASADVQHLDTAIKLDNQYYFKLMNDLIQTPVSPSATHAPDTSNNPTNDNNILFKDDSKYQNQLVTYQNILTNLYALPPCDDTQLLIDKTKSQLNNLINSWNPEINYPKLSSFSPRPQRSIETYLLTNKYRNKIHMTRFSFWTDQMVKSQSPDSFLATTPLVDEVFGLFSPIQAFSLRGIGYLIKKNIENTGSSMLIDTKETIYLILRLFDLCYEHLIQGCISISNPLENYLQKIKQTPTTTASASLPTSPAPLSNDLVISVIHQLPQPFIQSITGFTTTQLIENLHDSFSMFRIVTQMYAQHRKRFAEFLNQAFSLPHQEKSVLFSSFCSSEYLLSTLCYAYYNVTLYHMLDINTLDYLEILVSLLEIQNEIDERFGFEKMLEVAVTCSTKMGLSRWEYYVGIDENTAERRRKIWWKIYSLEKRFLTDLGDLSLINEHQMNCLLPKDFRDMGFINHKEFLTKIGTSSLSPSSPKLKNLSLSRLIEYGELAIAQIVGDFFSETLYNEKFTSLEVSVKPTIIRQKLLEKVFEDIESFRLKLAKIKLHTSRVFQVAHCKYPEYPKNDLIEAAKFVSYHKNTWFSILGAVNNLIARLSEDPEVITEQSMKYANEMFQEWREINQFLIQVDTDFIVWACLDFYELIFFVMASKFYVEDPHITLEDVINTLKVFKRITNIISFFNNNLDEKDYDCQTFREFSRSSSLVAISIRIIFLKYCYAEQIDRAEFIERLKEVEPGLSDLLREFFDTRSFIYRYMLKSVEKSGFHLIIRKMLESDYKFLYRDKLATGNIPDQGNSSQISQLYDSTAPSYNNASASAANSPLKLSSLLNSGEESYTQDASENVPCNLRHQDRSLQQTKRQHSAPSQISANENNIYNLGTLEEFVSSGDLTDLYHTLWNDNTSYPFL
Protocol: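 Universal 'all 10-mer' protein binding microarrays (Agilent AMADID 015681) probed with GST-tagged S. cerevisiae TFs (full-length or DBD) made by in vitro transcription/translation (PURExpress), about 100-200 nM. Bound TF was detected with fluorescent anti-GST. Each ungapped 8-mer (which stands for itself and its reverse complement) is scored by the PBM enrichment score (E-score), a modified Wilcoxon-Mann-Whitney statistic from -0.5 to +0.5, computed with the Universal PBM Analysis Suite. Scale: above 0.35 generally sequence-specific binding.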

Sequence	PBM E-score
ACGTCTTA	-0.186
AGAATCTG	-0.048
GCTAAAAA	-0.176
CACGCATA	-0.268
CAGAGTAC	-0.147
CGCTGCCG	0.136
TAACTAAA	-0.234
GACGGGCC	0.111
CCGCGGCC	0.459
ACTGCAAC	-0.226
GCCTAGCA	-0.258
CATCTAAA	-0.0338
AAATGCCT	-0.0833
GACATGTA	0.0371
GGGGCAAA	0.0161
GCCGAAGA	0.0594
CCGGTCAG	0.245
ATCCGGTC	0.215
GTCCATAA	-0.139
AATATCCT	-0.0215
GACCGTGC	-0.0484
GTGAGCGA	-0.0743

Sequence	PBM E-score
AGGCTGAA	-0.193
CCGTCTCC	0.219
CAGGAGCG	-0.12
AAGGGTGA	-0.0622
ACTCGTAT	-0.11
AGAGACCC	-0.00919
CACACTAA	-0.0221
ATTTAGCG	-0.145
ACCACAAC	0.105
ACTGCATA	-0.0203
CCGCCCAG	0.228
GACTGCTA	-0.275
CTGGGCTC	-0.231
ACTTAACT	-0.0121
CAATGGAC	-0.0624
CTCGGGCC	0.208
CCCAGACC	-0.147
CGAGTCCA	-0.139
GAGCGAAA	0.146
ATGTATCA	-0.0778
GAGTAATC	0.0896
AAAATGTT	-0.218

Sequence	PBM E-score
GTAAATCA	0.144
GCTGGACC	0.00517
AGAATCAG	0.0524
AGTGCTCC	0.0777
AACCGATT	0.123
CGAACCAC	0.18
AAGTACGA	0.206
GGGACGGA	0.33
CAGGCATA	-0.143
GATAGCAC	-0.0942
CGGAACAG	0.466
GAAGCCGC	0.305
TCCCACCA	-0.155
GACTGCTC	0.0261
ACTCGTTA	-0.215
AGACAACA	-0.14
TCTCTCAA	0.116
ACAAATAT	0.139
GGAGCGTA	0.109
AAACTAAC	-0.00559
ATTAGTCC	0.13
AAGACACC	0.0231

Sequence	PBM E-score
GGCGGTAC	0.0449
GATGCGCA	0.0246
ATGTGTGG	-0.0324
TCAGCGCA	0.0623
ACATATTA	-0.0563
CTGGTAAG	-0.237
AGGTTTGA	-0.142
AAGAGGAA	-0.1
ATGCAATA	-0.132
GCAACAAC	-0.0658
CGAAATAA	0.18
TCACTTCA	-0.0887
AAAGCTTA	-0.224
ACAACCAA	-0.0379
GAGCATAC	-0.0232
CGAATTCC	0.277
AGTCCCAC	-0.0928
GATTCCCA	0.0551
AAGCGTTC	-0.0435
AGCATCCT	0.156
AGACATCT	-0.135
GGTGTAGA	-0.0133

Sequence	PBM E-score
AGCACCGG	0.196
AATAAAAT	-0.0737
ATCTCCAC	-0.0688
GCCTGGCA	-0.208
CACGGACG	0.324
CGCTTGCC	0.0536
TTAGAGAA	-0.297
AGTAAACC	-0.173
CGACGTCA	0.0524
CAATTAAA	-0.0116
AATTTCCT	0.0149
AGACTATA	0.0891
CAGGATCC	0.0521
AATAGTCC	-0.011
GAACCCCC	-0.167
GGGAGGAC	0.128
CGGACACA	0.286
ACCGAAGT	0.0472
ATGCCTCC	-0.00197
CCCTCAGA	-0.237
AGTGAGCC	-0.0676
GATCAAAC	-0.0699
